Experimental data from paper PMC6919601, “Identification of Plasmodium dipeptidyl aminopeptidase allosteric inhibitors by high throughput screening” (PLoS ONE, 2019).
The whole screen tested about 110,000 compounds, of which about 230 (0.21%) showed an effect of 50% or more. The list shows a part of the results.

Biological target: DPAP1 (Plasmodium falciparum, UniProt Q8IIJ9)
Assay: primary screen, percent inhibition; read by cleavage of a fluorogenic dipeptide substrate; higher = more effect of the substance
Parameters: species or system P. falciparum D10 trophozoite lysates; single well
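Note: 30 min substrate incubation versus DMSO and 10 µM JCP410 controls.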

Sequence of DPAP1 (Q8IIJ9 whole entry, looked up): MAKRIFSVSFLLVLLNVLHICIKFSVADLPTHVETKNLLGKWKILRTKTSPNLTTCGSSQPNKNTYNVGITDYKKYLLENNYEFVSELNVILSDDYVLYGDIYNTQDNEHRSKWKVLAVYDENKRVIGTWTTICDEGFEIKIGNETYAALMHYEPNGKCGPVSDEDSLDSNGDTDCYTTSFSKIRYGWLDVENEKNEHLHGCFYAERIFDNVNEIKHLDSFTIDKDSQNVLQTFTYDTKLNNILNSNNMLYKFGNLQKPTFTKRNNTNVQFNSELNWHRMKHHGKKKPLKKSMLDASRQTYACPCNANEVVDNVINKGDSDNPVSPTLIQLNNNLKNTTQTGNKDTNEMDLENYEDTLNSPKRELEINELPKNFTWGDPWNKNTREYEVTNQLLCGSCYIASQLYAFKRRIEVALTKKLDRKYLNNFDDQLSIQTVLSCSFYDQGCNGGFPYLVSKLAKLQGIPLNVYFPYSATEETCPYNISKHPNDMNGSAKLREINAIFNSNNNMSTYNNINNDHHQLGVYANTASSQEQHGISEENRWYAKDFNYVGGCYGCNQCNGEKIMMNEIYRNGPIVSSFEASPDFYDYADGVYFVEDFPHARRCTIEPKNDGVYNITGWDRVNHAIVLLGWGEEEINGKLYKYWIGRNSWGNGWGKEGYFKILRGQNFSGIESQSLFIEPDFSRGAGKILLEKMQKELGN

Q: `COc1ccc(CNC(=O)c2cc(=O)c3cc(C)c(C)cc3o2)cc1` was tested. Which “% Inhibition @ 10 uM” value did it give?
A: 1.9%

Q: `Cc1ccc2c(Cl)c(C(=O)Nc3nc(C)cs3)sc2c1` was tested. Which “% Inhibition @ 10 uM” value did it give?
A: -2.45%

Q: For `Cc1ccc(-c2c(N3CCN(C)CC3)c(=O)c2=O)cc1`, which “% Inhibition @ 10 uM” value is on record?
A: -1.11%

Q: `COc1cccc(OC)c1C(=O)Nc1ccc(C(=O)O)cc1` was tested. Which “% Inhibition @ 10 uM” value did it give?
A: 3.9%

Q: Which “% Inhibition @ 10 uM” value does the source give for `O=C(c1ccc(NS(=O)(=O)c2cccc(C(F)(F)F)c2)cc1)N1CCCCCC1` here?
A: -1.57%

Q: `N=C1SCCN1CC(=O)c1ccccc1` was tested. Which “% Inhibition @ 10 uM” value did it give?
A: -8.3%

Q: `O=C(Nc1ccccc1NC(=O)c1cccnc1)c1cccnc1` was tested. Which “% Inhibition @ 10 uM” value did it give?
A: 0.389%

Q: Which “% Inhibition @ 10 uM” value does the source give for `O=C(O)C1CCN(c2cnccn2)CC1` here?
A: -3.08%

Q: How did the “% Inhibition @ 10 uM” value turn out when `Cc1nn(-c2ccc(Br)cc2)c(O)c1/C=N/c1ccc(S(=O)(=O)N(C)C)cc1` was run?
A: 2.08%

Q: `NC(=O)c1cc(S(=O)(=O)NCc2cccnc2)cs1` was tested. Which “% Inhibition @ 10 uM” value did it give?
A: -2.26%

Q: With `CCCCc1ccc(NC(=O)CC(C)=O)cc1` as the compound, how does the “% Inhibition @ 10 uM” value read?
A: -2.51%

Q: `CS(=O)(=O)C1=NN2C(=N)/C(=C\c3cn(Cc4ccccc4)c4ccccc34)C(=O)N=C2S1` was tested. Which “% Inhibition @ 10 uM” value did it give?
A: -1.58%

Q: With `Cc1cc(C)nc(C(=N)Nc2nc(-c3ccccn3)cc3ccccc23)n1` as the compound, how does the “% Inhibition @ 10 uM” value read?
A: -0.994%

Q: `O=C(CC1CCC1)Nc1ccc2c(c1)oc1ccccc12` was tested. Which “% Inhibition @ 10 uM” value did it give?
A: 17.5%

Q: How did the “% Inhibition @ 10 uM” value turn out when `Cc1cc(C(=O)NC2CCN(Cc3ccccc3)CC2)c2c(C)nn(-c3cccc(Cl)c3C)c2n1` was run?
A: 2.52%

Q: `Cc1cc2nc(NC(=O)CCCC(=O)O)sc2cc1C` was tested. Which “% Inhibition @ 10 uM” value did it give?
A: -5.07%

Q: With `Cc1nn(C(C)C(=O)N2CCN(C)CC2)c(=O)c2nn(-c3ccccc3)c(C)c12` (centres unmarked) as the compound, how does the “% Inhibition @ 10 uM” value read?
A: -7.76%

Q: Which “% Inhibition @ 10 uM” value does the source give for `CCN(CC)CCN(C(=O)c1ccc(C(C)=O)cc1)c1nc2ccc(C)cc2s1` here?
A: -1.07%

Q: Which “% Inhibition @ 10 uM” value does the source give for `C=CCn1c(C)c(C=C2C(=O)NC(=O)NC2=O)c2ccccc21` here?
A: 3.66%

Q: With `CCCOc1ccc(CNC(=O)CCCn2ncn3c(cc4occc43)c2=O)cc1` as the compound, how does the “% Inhibition @ 10 uM” value read?
A: -7.54%

Q: For `O=C(Nc1cccc(NC(=O)c2ccccc2F)c1)c1ccccc1F`, which “% Inhibition @ 10 uM” value is on record?
A: 2.08%

Q: With `COc1ccc2nc(N3CCC(O)(c4ccc(Br)cc4)CC3)cc(C)c2c1` as the compound, how does the “% Inhibition @ 10 uM” value read?
A: 15.8%

Q: Which “% Inhibition @ 10 uM” value does the source give for `COc1cc(NC(=O)c2ccccc2-c2ccccc2)cc(OC)c1OC` here?
A: -0.545%

Q: Which “% Inhibition @ 10 uM” value does the source give for `Cc1noc(C)c1Cc1c(C)noc1C` here?
A: 1.24%

Q: Which “% Inhibition @ 10 uM” value does the source give for `COc1cccc(OCCCCc2c(C)n[nH]c2C)c1` here?
A: -0.833%

Q: With `CC(C)c1ccc(S(N)(=O)=O)cc1` as the compound, how does the “% Inhibition @ 10 uM” value read?
A: -3.48%

Q: How did the “% Inhibition @ 10 uM” value turn out when `CCOC(=O)c1c(-c2ccc(C)cc2)csc1NC(=O)c1nc(S(=O)(=O)CC)ncc1Cl` was run?
A: -4.87%

Q: How did the “% Inhibition @ 10 uM” value turn out when `CCO/C(O)=C1\C(CC)=NC2=C(C(=O)CC(C)(C)C2)C1c1ccc([N+](=O)[O-])cc1` (centres unmarked) was run?
A: 0.716%

Q: Which “% Inhibition @ 10 uM” value does the source give for `Cc1ccc(-c2[nH]c(-c3ccc(F)cc3)nc2SCC(=O)Nc2nccs2)cc1` here?
A: -5.27%

Q: Which “% Inhibition @ 10 uM” value does the source give for `CNS(=O)(=O)c1cn(CC(=O)N(C)C2CCCCC2)cc1S(=O)(=O)NC` here?
A: -2.87%

Q: For `CCn1c2ccccc2n2c(S(=O)(=O)Cc3ccccc3)nnc12`, which “% Inhibition @ 10 uM” value is on record?
A: -0.666%

Q: Which “% Inhibition @ 10 uM” value does the source give for `Oc1ccc(O)c(CN2CCCCCC2)c1` here?
A: 5.68%

Q: Which “% Inhibition @ 10 uM” value does the source give for `CN(C)CCOC(=O)c1c[nH]c2ccccc12` here?
A: 4.18%

Q: Which “% Inhibition @ 10 uM” value does the source give for `CCOc1ccc(C2=CC(c3ccccc3OC(F)F)n3nnnc3N2)cc1Cl` (centres unmarked) here?
A: 3.32%

Q: How did the “% Inhibition @ 10 uM” value turn out when `CN1CCN(CCCNC(=O)CSCc2cnn(-c3ccccc3)c2-n2cccc2)CC1` was run?
A: 5.23%

Q: With `CCOC(=O)c1cc(-c2ccc(F)cc2)n(CC(=O)Nc2ncccc2C)c1C` as the compound, how does the “% Inhibition @ 10 uM” value read?
A: 1.47%

Q: How did the “% Inhibition @ 10 uM” value turn out when `CC(CCc1ccccc1)NC(=O)C1C2C=CC3(CN(Cc4cccs4)C(=O)C13)O2` (centres unmarked) was run?
A: 1.07%

Q: `CCOCCCNC(=O)C1CCCN(S(=O)(=O)N(C)C2CCCCC2)C1` (centres unmarked) was tested. Which “% Inhibition @ 10 uM” value did it give?
A: -1.09%

Q: How did the “% Inhibition @ 10 uM” value turn out when `CCC(CC(NC(=O)OCc1ccccc1)C(=O)NCC#N)c1ccccc1` (centres unmarked) was run?
A: -3.48%

Q: Which “% Inhibition @ 10 uM” value does the source give for `CCCCCOc1ccc(C2C(C#N)=C(N)Oc3[nH]nc(C)c32)cc1OC` (centres unmarked) here?
A: -1.16%

Q: For `CC(=O)c1cccc(NS(=O)(=O)c2ccccc2F)c1`, which “% Inhibition @ 10 uM” value is on record?
A: -4.39%

Q: For `N#CC1=C(N)OC2=C(C(=O)CCC2)C1c1ccccc1Cl` (centres unmarked), which “% Inhibition @ 10 uM” value is on record?
A: -0.0372%

Q: With `c1ccc(-c2ccc(CN3CCC(N4CCCCC4)CC3)cc2)cc1` as the compound, how does the “% Inhibition @ 10 uM” value read?
A: -1.75%

Q: `COc1nc(N(CC(N)=O)S(=O)(=O)c2ccccc2)nc(C)c1Cl` was tested. Which “% Inhibition @ 10 uM” value did it give?
A: -7.33%

Q: Which “% Inhibition @ 10 uM” value does the source give for `COc1ccccc1NC(=O)C1=C(C)NC(SC)=C(C#N)C1c1ccco1` (centres unmarked) here?
A: 2.45%

Q: `Cc1cc(C)c2c(-n3cccc3)c(C(=O)N3CCC(C(=O)O)CC3)sc2n1` was tested. Which “% Inhibition @ 10 uM” value did it give?
A: 1.63%

Q: `O=C1C=CC(=NS(=O)(=O)c2ccc(Cl)cc2)C=C1` was tested. Which “% Inhibition @ 10 uM” value did it give?
A: -5.63%

Q: With `COc1ccc(OCCn2c(=N)n(C)c3ccccc32)cc1` as the compound, how does the “% Inhibition @ 10 uM” value read?
A: 3.53%

Q: `Cc1c2cnn(CC(=O)NCC(C)c3ccccc3)c(=O)c2c(C)n1Cc1ccccc1` (centres unmarked) was tested. Which “% Inhibition @ 10 uM” value did it give?
A: -0.447%

Q: For `Cc1cc(C)c(NC(=O)CN(C2CCCCC2)C2CCCCC2)c(C)c1`, which “% Inhibition @ 10 uM” value is on record?
A: -0.415%
